# Measurements reported in PubChem BioAssay (NCI).
# “And” between values parts separate entries of the source, which are not always exact repeats. Equal entries are not always repeated.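 48-hour exposure; five concentrations; linearly interpolated endpoints. GI50 is the concentration that inhibits growth by half. TGI is the concentration that stops growth completely.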
# System: NCI-H322M lung
# Experiment: growth of human tumour cells (NCI), 48 h
SMILES,TGI,GI50
COC(=O)C(/C(=N/N)C(=O)Nc1cc(Cl)ccc1Cl)c1nc2ccc([N+](=O)[O-])cc2[nH]c1=O (stereo not drawn),> 100 µM,–
COC(=O)[C@@H](C)C[C@H](Cc1ccccc1)NC(=O)c1csc([C@@H](C[C@H](C(C)C)N(C)C(=O)[C@@H](NC(=O)[C@H]2CCCCN2C)c2ccc(F)cc2)OC(C)=O)n1,25 µM and > 100 µM,–
COc1nc(NC2OC(COC(C)=O)C(OC(C)=O)C(OC(C)=O)C2OC(C)=O)c(N=C(C)C(C)=O)c(=O)n1C (stereo not drawn),> 100 µM,–
CC1=C/C(=N\NS(=O)(=O)c2ccc([N+](=O)[O-])cc2)CC(C)(C)C1,> 100 µM,–
C[C@]1(c2nc3c(C(N)=O)cccc3[nH]2)CCCN1,> 100 µM,39.4 µM and > 92.7 µM
CC1=C(C(=O)O)N2C(=O)[C@@H](NC(=O)C(c3ccccc3)N3CSC(=S)N(C(C)C)C3)C2SC1 (stereo partly drawn),> 100 µM,–
Cc1ccc(S(=O)(=O)NC(Cc2ccccc2)C(=O)CCl)cc1 (stereo not drawn),31.2 µM,–
Cc1cc(-c2nc3ccc(F)cc3s2)ccc1NC(=O)C(N)CCCCN (stereo not drawn),18.5 µM,–
CCOc1cc2c(cc1O)C=C[C@@H]1[C@@H]2CC[C@]2(C)[C@@H](O)CC[C@@H]12,42.4 µM,–
CCCC[C@H](CCc1ccccc1)N(C(=O)OC)N1CCC[C@H]1COC,83 µM,–
COc1ccc(NC(=O)c2ccc(C(F)(F)F)nc2Nc2ccc(Cl)cc2C)cc1Cl,50.4 µM,20.3 µM
C#Cc1cccc(Nc2nc(C)nc3cc(NC(=O)CCl)ccc23)c1,7.54 µM,4.14 µM
Fc1ccccc1-c1cc(=S)c2cc3c(cc2[nH]1)OCO3,> 100 µM,–
CC[C@H](C)[C@H](NC(=O)c1ncccn1)C(=O)N(C)[C@H](C[C@@H](OC(C)=O)c1nc(C(=O)N[C@@H](Cc2ccccc2)C[C@H](C)C(=O)OC)cs1)C(C)C,> 25 µM,1.91 µM
O=c1cc(-c2ccccc2)oc2c(O)c(O)ccc12,50.4 µM,5.15 µM
CC1(C)CC[C@]2(C(=O)NCCNCCN)CC[C@]3(C)C(=CC[C@@H]4[C@@]5(C)CCC(=O)C(C)(C)[C@@H]5CC[C@]43C)[C@@H]2C1,3.24 µM,1.7 µM
CCSC1=N/C(=C\c2ccco2)C(Nc2ccc(C)cc2)=N1,> 100 µM,–
COc1ccc(/C(=N/OCCCC(=O)O)c2cccs2)cc1,> 100 µM,–
COc1nc2c(c(=O)n1C)CN(c1ccccc1)C(=O)CN2C,> 100 µM,79.7 µM
CCOc1ccc(Nc2ccnc3cc(Cl)ccc23)cc1,> 100 µM,> 100 µM
C[C@]12CC[C@@H]3c4ccc(O)cc4CC[C@H]3[C@@H]1CC(Cc1ccccc1)(Cc1ccccc1)C2=O,38.5 µM,18.8 µM
C[C@H](CCC(=O)O)[C@H]1CC[C@H]2[C@@H]3[C@@H](O)C[C@@H]4C[C@H](O)CC[C@]4(C)[C@H]3C[C@H](O)[C@]12C,> 100 µM,–
CC(C)(C)c1cc[n+](C[n+]2ccc(C(C)(C)C)cc2)cc1,> 100 µM,–

SMILES,TGI,GI50
CSc1c(C(N)=S)c(N)nn1-c1ccccc1,> 100 µM,–
CC1(C)N=C(N)N=C(N)N1c1cccc(CCCCc2ccc(Cl)c(S(=O)(=O)F)c2)c1,22.5 µM,6.45 µM
Cc1ccc([N+](=O)[O-])cc1NC(=O)C(=O)Cc1nc2ccc(C(=O)c3ccccc3)cc2[nH]c1=O,> 100 µM,–
CCCC(=O)Oc1ccc(/C=N/NC(N)=S)nc1,> 100 µM,–
Oc1cccc2ccc(SSc3ccc4cccc(O)c4n3)nc12,> 100 µM,–
CCCCCCCCCCNC(=S)OC,> 100 µM,–
CCCCSC1CCSc2c1ccc1ccccc21 (stereo not drawn),> 100 µM,–
Nc1ccc(C(=O)CC2(O)C(=O)Nc3ccccc32)cc1 (stereo not drawn),> 100 µM,–
CCCCCCCCCCCCCCCCCC1=NC(C)(C)CN1C(C)(C)CO,7.1 µM,2.65 µM
COc1cccc(/C=C2\N=C(Cl)OC2=O)c1O,> 100 µM,–
Cc1ccc2c(ccc3ncc(CNc4ccc(NS(C)(=O)=O)cc4)c32)[nH]1,> 100 µM,–
CC(=O)OC1CC2C(C)(C)C(=O)C=C[C@]2(C)C2CCC3(C)C(c4ccoc4)C(=O)C4OC43[C@]12C (stereo partly drawn),50.5 µM,–
C=C1C2CC(OC(C)=O)C3(C)C(c4ccoc4)OC(=O)[C@@H](O)[C@]13OC1C[C@H](OC(C)=O)C(C)(C)[C@H](C(O)C(=O)OC)[C@]12C (stereo partly drawn),> 100 µM,–
CC1CCCc2c1n[nH]c2CC1CC(=O)NC(=O)C1 (stereo not drawn),> 100 µM,–
C=CCN=C1NC(=O)C(CC(=O)Nc2cccc(Cl)c2)S1 (stereo not drawn),> 100 µM,–
COc1nc2ccc(Cl)c(C(O)c3ccccc3)c2nc1OC (stereo not drawn),> 100 µM,–
N#C[S-].[Ce+3].c1ccc(-c2ccccn2)nc1.c1ccc(-c2ccccn2)nc1.c1ccc(-c2ccccn2)nc1,> 100 µM,13.6 µM
CC(=O)O[C@H]1CC[C@@]2(C)C(=CC[C@H]3C(CC#N)[C@@](C)(C#N)CCC32)C1 (stereo partly drawn),> 100 µM,–
O=S(=O)(O)c1ccc(N=Nc2ccc(N=Nc3c(O)ccc4ccc(S(=O)(=O)O)cc34)cc2)cc1,> 100 µM,–
NC(=O)c1ccc(I)c([N+](=O)[O-])c1,99.7 µM,35.2 µM
COc1ccc(C2=NN(C(C)=O)c3nc4ccccc4nc3O2)cc1,> 100 µM,–
CCOC(=O)c1ccc(Nc2nc3ccccc3n3cccc23)cc1,> 100 µM,–
Cn1c2ccccc2c2c3c(c4c5ccccc5n(C)c4c21)C(=O)N(Cc1ccccc1)C3=O,> 100 µM,–

SMILES,TGI,GI50
O=C1NN(C(=O)c2ccccc2)C(c2ccc(Cl)c(Cl)c2)=C/C1=C\c1ccccc1[N+](=O)[O-],> 6.75 µM,2.23 µM
O=C(CSc1nc2ccc(I)cc2c(=O)n1Cc1ccccc1)NNC(=S)Nc1ccccc1,> 100 µM,–
CS(=O)(=O)c1ccc(C(=O)O[C@@H]2C(=O)N3CC[C@H]4OC(O)[C@@H]2[C@H]43)cc1 (stereo partly drawn),> 100 µM,–
CCOC(=O)NC(=O)c1cn(C2CCCCC2)c(=O)n(C)c1=O,> 100 µM,–
N[C@@H](Cc1c[nH]c2ccccc12)C(=O)NC1CCN(Cc2c[nH]c3ccc(Cl)cc23)CC1,24.5 µM,11.6 µM
N#Cc1c(N)c(C(=O)c2ccc3c(c2)OCCO3)n2c1CCCC2,> 100 µM,6.33 µM
C1=C2C3=[N+](CCCC3)CC2Cc2sccc21 (stereo not drawn),> 100 µM,–
COc1ccc(OC)c(-c2cc(-c3ccc(Cl)cc3)nn2-c2ccccc2)c1,> 100 µM,40.1 µM
CCCCN(C)CC(C(C)=O)C(c1ccccc1)c1c(O)c2ccccc2oc1=O (stereo not drawn),> 100 µM,–
CC(=O)/C(=C/N1CC(=O)NC1=S)C(=O)Nc1ccccc1C,> 100 µM,–
CC(C)(C)n1[nH]c(=O)n(C(C)(C)C)c1=O,> 100 µM,–
C[C@@H](c1ccccc1)N1C[C@@H](c2ccc3c(c2)OCO3)[C@@H]2C(=O)CCC[C@@H]21,> 100 µM,–
COC(=O)CC(C(C(=O)OCc1ccccc1)C(C)O)N1C(=O)OCC1c1ccccc1 (stereo not drawn),> 100 µM,–
CCCNC(=O)Cn1c2c(c3ccccc31)CCCC2,> 100 µM,–
COc1cc(OCCCN2CCCC2)ccc1Nc1ncc(Cl)c(Nc2ccccc2P(C)(C)=O)n1,6.84 µM,1.54 µM
Cc1cc2[nH]c(=O)c3c4ncccc4cn3c2cc1C,> 100 µM,4.1 µM
NC(CCl)=NCC12CC3CC(CC(C3)C1)C2,19 µM,3.57 µM
CCCCCCCCCCCCCC(=O)OCC(CCS(=O)(=O)O[C@H]1CC[C@@]2(C)C(=CC[C@@H]3C2CC[C@]2(C)C(=O)CCC32)C1)OC(=O)CCCCCCCCCCCCC (stereo partly drawn),> 100 µM,–
CC(=O)NNc1ncc(C(=O)/C=C/c2ccccc2C)s1,> 100 µM,–
Cc1cc(C)n(CN(CCCCO)Cn2nc(C)cc2C)n1,> 100 µM,–
O=P(O)(O)c1ccc2c(c1)OCCOCCOCCOCCO2,> 100 µM,–
CC(C)(C)OC(=O)NCC(c1c[nH]c2cc(Br)ccc12)c1c[nH]c2cc(Br)ccc12,34.1 µM,–
